This sample is rich in variants without activity.
B1: TPR 5TU (parent)
chain: GGAUCUUCUCGAUCUAACAAAAAAGACAAAUCUGCCACAAAGCUUGAGAGCAUCUUCGGAUGCAGAGGCGGCAGCCUUCGGUGGCGCGAUAGCGCCAACGUUCUCAACUAUGACACGCAAAACGCGUGCUCCGUUGAAUGGAGUUUAUCAUG

Variants of: B1
Experiment: polymerase ribozyme fitness, log enrichment relative to wild type (log ratio); higher = more active; in vitro selection for triplet polymerase activity
How it was run: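 Each subunit of a heterodimeric triplet polymerase ribozyme was represented by a PCR-built, transcribed mutant library that underwent triplicate single-round in vitro selection with frozen incubation at −7 °C. Extended constructs were recovered by gel excision, streptavidin-bead capture and RT-PCR, and Illumina sequencing of input and output libraries kept genotypes with ≥10 input reads and ≥1 read per output. Fitness is the logarithm of genotype enrichment relative to wild-type enrichment, from inverse-variance-weighted replicate averages, with a logarithm base of 2.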

GGAUCGGCUCGAUCUAACAAAAAAGACAAUUCUGCCACAAAGCUUGAGAGCAUCUUCGGAUGCAGAGGCGGCAGCCUUCGGUCGCGCGAUAGCGGCAACGUUCUCAACUAUGACACGCAAAACGCGUGCUCCGUUAAAUGGAGUUUAUCAUG [U6G U7G A30U G83C C95G G136A] and GGAUCGUCUCGAUCUAACAAAAAAGACAAAUCUGCCACAAAGCUAGAGAGCAUCUUUGGAUGCAGACGCGGCAGCCUUCGGUGGCGCGAUAGCGGCAAUGUUCUCAACUAUGACACGCAAAACGCGUGCUCCGUUGAAUGGAGUUUAUCAUG [U6G U45A C57U G67C C95G C99U] cannot be ordered by “polymerase ribozyme fitness (log ratio)” value: no more than -4.2 for the first, no more than -4.2 for the second.

GGAUCGUCUCAAUCUAACAUAAAAGACAAAUCUGCCACAAAGCGUGAGAGCAUCUUCGGAUGCAGAGGCGGCAGCCUUCGGUGGCGGGAUAGCGCCAACGUUCUCAACUAUGACACGCAAAACGCGUGCUCUGUUGACUGGAGUUUAUCAUG [U6G G11A A20U U44G C87G C132U A138C] and GGAUCGUCUCGAUCUAACAAAAAAGACAAAUCUGCCACAAAGCUUGAGAUCAUCUUCGGAUGCAGAGGCGGCAGCCUUCGGUUGCGCGAUAGCGCCAACGUUCUCAACUAUGACACUCAAAACGCGUGCUCCUUUGAAUGGAGUUUAUCAAG [U6G G50U G83U G117U G133U U151A] cannot be ordered by “polymerase ribozyme fitness (log ratio)” value: no more than -4.2 for the first, no more than -4.2 for the second.

Going from GGAUCGUCUCGAUCUAACAAAAAAUACAAAUCUGCCACAAAGCUUGAGCGCAUCUUCGGAUGCAGAGGCGGCAGCCUUCGGUGGCGCGAUAGUGCCAACGUUCUCAACUAUGACACGCAAAACGCGUUCUCCGUUGAAUGGAGUUUAUCAUG [U6G G25U A49C C93U G128U] to GGAUCGUCUCAAUCUAACAAAAAAGACAAAUCUGCCACAAAGCUUGAGAGCAUCUUCGGAUGCAGAGGCGGCAGCCUUCGGUGGCGCGAUAGCGCCAACGUUCUCAACUAUGACACGCAAAACGCGUGCUCCGUUGAAUGGAGUUUAUCAUG [U6G G11A], the “polymerase ribozyme fitness (log ratio)” value rises from no more than -4.2 to -0.786.

Compared with GGAUCGUCUCGAUCUAACAAAAAAGACAAAUCUGCCACAAAGCUUGAGAGCAUCUUCGGAUGCAGAGGCGGCAGCCUUCAGGGGCGCGAUAGCGCCAACGUUCUCAACUAUGACACGCAAAACGCGUGCUCCGUUGAAUGUAGUUUAUCAUG [U6G G80A U82G G141U], GGAUCGUCUCGAUCUAACAAAAAAGACAAAUCUGUCACAAAGCUUGAGAGCAUCUUCGGAUGCAGAGGCGGCAGCAUUCGGUGGCGUGAUAGCGCCAACGUUCUCAACUAUGACACGCAAAACGCGUGCUCCGUUGAAUGGAGUUUAUCAUG [U6G C35U C76A C87U] is lower in “polymerase ribozyme fitness (log ratio)” value: 0.34 for the first, -2.63 for the second.

Going from GGAUCGUCUCGAUCUAACAAAAAAGACAAAUCUGCCACAAAGCUUGAGAGCAUCUUCGGAUGCAGAGGCGGCAGCCUUCCGUGGCGCGAUAGCGCCAACGUUCUCAACUAUGACACGCAAAACGCGUGCUCCGUUGAAUGGAGUUUAUAAUG [U6G G80C C149A] to GGAUCGUCUCGAUCUAACAAAAAAGACAAAUCUGCCACAAAGCUUGAGAGCAUCUUCGGAUGCAGAGGCGGCAGCCUUCGGUCGCGCGAUAGCGCCAACGUUCUCAACUAUGACACGCAAAACGCGUGCUCCGUUGAAUGGAGUUUAUCAUG [U6G G83C], the “polymerase ribozyme fitness (log ratio)” value rises from no more than -4.2 to -0.223.

GGAUCGUCUCGAUCUAACAAAAAACACAAAUCUGCCCCAAAGCUUGAGAGCAUCUUCGGAUGCACAGGCGGCAGCCUUCGGUGGCCCGAUAGCGCCAUCGUUCUCAACUAUGACACGCAAAUCGCGUGCUCCGUUGAAUGGAGUUUAUCAUG [U6G G25C A37C G65C G86C A98U A122U] and GGAUCGUCUCGAUCUAACAAAAAAGACAAAUCUGCCACAAAGCUUGAGAGCAUCUUCGGAUGCAGAGGCGGCAGCCUUCGGUGCCGCGAUAGCGCUAACGUUCUCAACUAUGACACGCAAAACGCGUGCUCGGUUGAAUGGAGCUUAUCAUG [U6G G84C C96U C132G U144C] cannot be ordered by “polymerase ribozyme fitness (log ratio)” value: no more than -4.2 for the first, no more than -4.2 for the second.

GGAUCGUCUCGAUCUAACAAAAAAGACAAAUCUGCCACAAAGCUUGAGAGCAUCUUCGGAUGCAGAGGCGGCAGCCUUCGGUUGCGUGAUAGUGCCAACUUUCUCAUCUAUGACACGCAAAACGCGUGCUCCGUUGAAUGGAGUUUAUCAUG [U6G G83U C87U C93U G100U A107U] and GGAUCGUCUCGAUCUAACAAAAAAGACAAAUCUGCCACAAAGCUUGAGAGCAUCUUCGGAUGCAGAGGCGGCAGCCUUCGGUGGCGUGAUAGCGCCAACGUUCUCAACUGUGACACGCAAAACGCGUGCUCCUUUGAAUUGAGUUUAUCAUG [U6G C87U A110G G133U G140U] cannot be ordered by “polymerase ribozyme fitness (log ratio)” value: no more than -4.2 for the first, no more than -4.2 for the second.

GGAUCGAAUCGAUCUAACAAAAAAGACAAACCUGCCACAAAGCUUGAGAGCAUCUGCGGAUGCAGAGGCGGCAGCCUUCGGUGACGCGAUAGCGCCAACGUUCUCAACUAUGACACGCAAAACGCGUGCUCCGUUGAAUGGAGUUUAUCAUG [U6G U7A C8A U31C U56G G84A] and GGAUCGUCUCGAUCUAACAAAAAAGACAAAUCUGCCAUAAAGCAUGAGAGCAUCUUCGGAUGCAGAGGCGGCAGCCUUCGCUGGCGCGAUAGCGCCAACGUUCUCAACUAUGACACGCACAACGCGUGCUCCGUUGAAUUGAGUUUAUCAUG [U6G C38U U44A G81C A120C G140U] cannot be ordered by “polymerase ribozyme fitness (log ratio)” value: no more than -4.2 for the first, no more than -4.2 for the second.

GGAUCGUCGCGAUCUGACAAAAAAGACAAAUCUGCCACAAAGCUUGAGGGCAUCUUCGGAUGCAGAGGCGGCAGCCUUCGGUGGCGCGAUAGCGCCAACGUUCUCAACUAUGACACGCAAAACGCGUGCUCCGUCGAAUGGAGUUUAUCAUG [U6G U9G A16G A49G U135C] and GGAUCGUCCCGAUCUAACAAAAAAGACACAUCUGCCACAAAACUUGAGAGCAUCUUCGGAUGCAGAGGCGGCAGCCUUCGGUGGCGCCAUAGUGCCAACGUUCUCAACUAUGACACGGAAAACGCGUGGUCCGUUGAAUGGAGUUUAUCAUG [U6G U9C A29C G42A G88C C93U C118G C129G] cannot be ordered by “polymerase ribozyme fitness (log ratio)” value: no more than -4.2 for the first, no more than -4.2 for the second.

With GGAUCGUCUCGAUCUAACAAAAAAGACAAAUCUGCCACAAAGCUUGAGAGCAUCUUCGGAUGCAGAGGCGGCAGGCUUCGGUGGAGCGAUAGCGCCAACGGUCUAAACUAUGACACGCUAAACGCGUGCUCCGUUGAAUGGAGUUUAUCAUG [U6G C75G C85A U101G C105A A119U] the “polymerase ribozyme fitness (log ratio)” value was no more than -4.2.

From the RNAGym collection of RNA variant scans (doi:10.1073/pnas.2313332121)
